Whole data set: some 110,000 compounds, median “z-score” near -0.1, cut for the highest 2% near 2. This is one part of the list.
molecular target: Metabotropic glutamate receptor 8 (Rattus norvegicus) (UniProt P70579); test: rat mGluR8 modulators via GIRK flux, primary screen, cell-based, thallium flux, HTS (AID 488969); conditions: HEK293 rat mGluR8, GIRK (G protein-gated inwardly rectifying potassium channel) thallium flux, FluoZin2; at 10 µM; stronger effect = higher value; submaximal glutamate (EC20) added with thallium
Sequence of UniProt P70579 (P70579 whole entry, looked up): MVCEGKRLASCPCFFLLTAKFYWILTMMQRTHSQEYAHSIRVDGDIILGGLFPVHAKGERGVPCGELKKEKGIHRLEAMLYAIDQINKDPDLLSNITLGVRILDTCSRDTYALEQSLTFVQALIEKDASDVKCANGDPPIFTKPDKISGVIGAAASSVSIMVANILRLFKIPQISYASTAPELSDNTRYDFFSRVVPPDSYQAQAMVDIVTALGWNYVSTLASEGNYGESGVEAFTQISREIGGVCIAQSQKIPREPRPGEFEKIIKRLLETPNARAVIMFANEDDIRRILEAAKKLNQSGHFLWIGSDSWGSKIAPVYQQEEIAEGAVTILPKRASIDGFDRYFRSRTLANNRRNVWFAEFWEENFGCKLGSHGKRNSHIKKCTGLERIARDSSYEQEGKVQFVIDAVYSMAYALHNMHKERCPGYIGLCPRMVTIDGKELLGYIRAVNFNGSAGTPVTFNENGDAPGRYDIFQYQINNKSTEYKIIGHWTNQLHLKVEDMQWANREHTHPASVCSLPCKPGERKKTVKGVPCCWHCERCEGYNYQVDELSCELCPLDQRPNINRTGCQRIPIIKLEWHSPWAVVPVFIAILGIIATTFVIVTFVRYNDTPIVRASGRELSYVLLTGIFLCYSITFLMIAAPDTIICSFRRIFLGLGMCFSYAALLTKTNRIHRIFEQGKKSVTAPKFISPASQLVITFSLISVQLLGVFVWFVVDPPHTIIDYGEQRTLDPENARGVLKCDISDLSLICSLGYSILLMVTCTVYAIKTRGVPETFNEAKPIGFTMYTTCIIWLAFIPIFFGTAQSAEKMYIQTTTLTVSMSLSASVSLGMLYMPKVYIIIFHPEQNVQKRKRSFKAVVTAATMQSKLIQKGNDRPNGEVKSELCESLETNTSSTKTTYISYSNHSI

Row | SMILES | z-score
1 | Cc1cc(NC(=O)c2sccc2C)n(-c2cccc(Cl)c2)n1 | -0.756
2 | O=C1CC(c2ccccc2)Cc2nc(NCc3ccco3)ncc21 (stereo not given) | -0.203
3 | Cc1cc(C)n(CC(O)COCc2ccccc2)n1 (stereo not given) | 0.413
4 | CN1C(C)(C)CC(=NOC(=O)c2ccccc2)CC1(C)C | 0.114
5 | O=C(CC1Oc2ccccc2NC1=O)NC1CCCC1 (stereo not given) | -0.0976
6 | C=CCc1c(OC)ccc2ccc(=O)oc12 | -0.376
7 | Cc1ccc2[nH]c3c(N4CCCCCC4)ncnc3c2c1 | -1.1
8 | O=C(N/N=C\c1ccc(-c2ccccc2[N+](=O)[O-])o1)C1COc2cc3ccccc3cc2O1 (stereo not given) | -0.33
9 | CCOCCCNC(=O)C1CCN(S(=O)(=O)c2c(C)noc2/C=C\c2ccc(OC)cc2)CC1 | -0.684
10 | COc1ccc(NS(=O)(=O)c2ccc3c(c2)oc(=O)n3C)c(OC)c1 | 0.162
11 | Cc1ccc(S(=O)(=O)N2CCN(C(=O)c3nn(C(C)C)c(=O)c4ccccc34)CC2)cc1C | -0.273
12 | CCc1cccc(C)c1NC(=O)CO/N=C(\C)c1cc2ccccc2o1 | -0.474
13 | Fc1ccc(-c2cnc(-c3cccs3)o2)cc1 | 0.0736
14 | CCc1cc2c3c(c1)C(C)CC(C)(C)N3C(=O)C2=O (stereo not given) | -1.1
15 | CC(NC(=O)CN(C)Cc1nc2ccccc2c(=O)[nH]1)c1ccccc1 (stereo not given) | -0.0151
16 | O=C(NC1CCCCC1)C(c1ccccc1)N(Cc1ccc2c(c1)OCO2)C(=O)c1cnsn1 (stereo not given) | 2.16
17 | COC(=O)C1=C(C)N=c2s/c(=C/c3cccs3)c(=O)n2C1c1cccs1 (stereo not given) | 0.251
18 | Cc1sc(NC(=O)C2CC=CCC2C(=O)O)c(C(=O)OC(C)C)c1C (stereo not given) | -0.176
19 | O=C(Oc1cccc(NC(=O)c2cccs2)c1)c1cccc(S(=O)(=O)N2CCCC2)c1 | -0.3
20 | CCc1nnc(NC(=O)Cc2ccc(OC)cc2)s1 | 0.105
21 | COc1cnn(-c2ccccc2)c(=O)c1SCc1ccc(Cl)cc1Cl | 0.0847
22 | Cc1ccc(-c2nc3ccccc3o2)cc1NC(=S)NC(=O)c1cccs1 | 1.65
23 | N#Cc1nc(N)nc(N(c2ccccc2)c2ccccc2)n1 | -0.535
24 | COc1ccc(-n2nc3cc(C)c(N)c(Br)c3n2)cc1 | -0.24
25 | Cn1c(CS(=O)Cc2c(Cl)cccc2Cl)nnc1SCc1ccc(Cl)cc1 (stereo not given) | -0.0974
26 | CCc1ccc(NC(=O)C(C)Oc2nnc(-c3cccs3)c(-c3cccs3)n2)cc1 (stereo not given) | -0.246
27 | CCN1CCN(C(=O)C2(NC(=O)Nc3cccc(F)c3)CCCCC2)CC1 | 0.174
28 | Cc1ccc(NC(=O)Cn2nnc(C(=O)Nc3ccc(C)c(C)c3)c2N)cc1 | 0.457
29 | CCOc1ccc(NS(=O)(=O)c2ccc3[nH]cc(C(=O)N(CC)CC)c(=O)c3c2)cc1 | 0.0393
30 | COc1ccc(Nc2ncc3c(n2)CC(c2ccc(C)cc2)CC3=O)cc1 (stereo not given) | -0.0742
